Drawing on the RNAGym collection of RNA variant scans (doi:10.7554/elife.90254), this text covers self-cleavage for 83 variants.

Read counts are not given, so values of variants with three or more changes are uncertain.

First the molecules themselves.
B1: OR4K15 (parent)
chain: GUUAACGGUCAUAGGCCAUGGAAACUAGGAGCACCAUUUCGCUGCCAGUGAAGAAAUGAACAAAGAAAAUCUGGGCCAGGCAGGCAUCAAAAGAAAUAGUCUUGCGCUCAACCAGAAAGUCUGUAAUCAUUUUAAGGGUA

This series covers variants of B1. As to the kind of experiment: self-cleavage, relative activity (ratio to wild type); higher = more cleavage; in vitro, sequencing; the parent is a self-cleaving ribozyme.
For U2C A18U C85G A89G A94G A95G, the self-cleavage was found to be 1.07.
The result for G1A A66G G73A reads 0.58; that for G1A A36G U37C U43C A91G U120C, 0.31.
The result for U2C A24G A78U A111U reads 0.04.
U2C A27G U37C A78G U120C A129U: the self-cleavage was found to be 0.15.
The result for U2C A23G A126G A129G reads 0.14.
The result for U2C A18G A78U A91G C107U U124C reads 0.01; that for U2C A51U U108C, 0.03; that for U2A A52G G84A, 0.6.
U2C A13U A69C: the self-cleavage came to 0.69.
Take U2A U37C A52G: the self-cleavage came out at 0.46.
In the case of G1A A22G A66G U127C, the self-cleavage worked out at 0.67.
For U2C A18G A63G, the self-cleavage worked out at 0.53.
For U2C A24U U26C U57C A135G the value was 0.36; for U2C A24G A30G A47G A95C U100C, 0.99; for U2C A30U U102A U132C, 0.4.
The result for U2A C16U U87A A110G reads 0.1.
For U2A A18C U26C A94G U120C the value was 0.52; for U2C A30U A111G A117G, 0; for U2A A11G A82G, 0.67.
Take U2C A22G C76U A117G U131C: the self-cleavage was 0.14.
As for U2C A11U A78G, the self-cleavage was 0.51.
U2C A13G A78G: the self-cleavage is 0.23.
The result for U2A U38C A82G A95G A117G reads 1.93; that for U2C A4G U43C, 0.48.
For U2C A30G A52G A114C U124C U131C the value was 0; for U2A C16U U102C U131C, 0.
For U2C A30G A59G the value was 1.11.
U2A A22G A67U A86G: the self-cleavage was found to be 0.3.
The result for U2C A23U A27G A55G A116G reads 0.98; that for U2A A23G U72C U127G G136A, 0.67.
The result for G1U U2C U19C A24U A69G A111G reads 0.11; that for U2C A51G A52G A63U C76G, 0.2.
Turning to U2A A11G A55G A66G U127G, the self-cleavage turned out to be 1.88.
For U2A A54G A69G the value was 1.17; for U2A C45U A78U A96C U132C, 0.13.
For U2A A23G A69G the value was 1.16.
For U2A A63G A68G U87C U139C the value was 0.95; for U2A U39A U108C G115U, 0.03.
As to U2C A33U A52G, the self-cleavage amounted to 1.68.
The result for U2C A47G A51G A64G U72G G93A U102C reads 0.25; that for U2C A51G U102A U108C A125G, 0; that for U2A U57C A94G U130C, 1.6.
The result for U2A U49C A82G reads 0.58; that for U2C A30U A116G, 0.75.
For G1A U49A A51G A116U A117U A140G the value was 0.27; for U2C A22G A47U, 0.55; for U2C A52G U70A U127G A129G, 0.43.
With U2C A52G U103C U127A U132C, the self-cleavage was determined as 0.03.
For U2C A24U U122A the value was 0.23; for U2C A47U A54G G73A U108C, 0.01; for U2C A22G A51G U133A, 0.93.
For U2A A60G A89U A98G U130C the value was 0.29.
For U2A A36G A94G the value was 1.03; for U2C A27G A95G, 1.44.
As to U2C A30G A66G U72C U108G A129U, the self-cleavage was found to be 0.
The result for U2C A23G A67G C121A U122C reads 1.27; that for U2C A33G A47C, 0.26; that for U2C A30U A55G U102C, 1.15.
The result for U2C A36U A89U reads 1.27.
For G1A G31C U122A the value was 0.95; for U2C A5U A86G, 1.26; for U2C A4G A55G A110U, 0.71.
On to U2C A30G A95G U130C, for which the self-cleavage was determined as 0.97.
For U2C A23G A33G G73C A110G the value was 0.05; for U2C A24G A92G U108C U127C A135G, 0.02.
On to U2C A30G A36G U37C A60G A117G, for which the self-cleavage was 0.92.
For G1A U2G U9C A98C the value was 1.73.
The result for U2C A24G A54C A92G reads 0.93; that for U2C A30C U43C A68G A94G U100C, 0.92; that for U2C A52G A94G U108C A110U, 0.01.
The result for U2C A51G A66G A90G U132C reads 1.27; that for U2A C46A A59U A116U, 0.41.
Regarding U2C A24G U39A, the self-cleavage worked out at 1.17.
For U2A A110G C113A A118G, the self-cleavage is 0.05.
The result for U2C A52G U70C A82U U132C reads 0.13; that for U2A U19C A33G U130C, 0.61.
For U2C A22G A52G the value was 0.9; for U2A A33U U38C, 1.01.
Turning to U2C A11G U19A A51G, the self-cleavage was found to be 1.04.
For U2A A30G A36G, the self-cleavage worked out at 1.37.
The result for G1A A47G A62G A111U reads 0.16; that for U2C A4G U43C A55C A116G, 0.92.
